Reference: paper PMC555569
No constants are given. Whether binding was seen depends on the method and setting. For some assays here: In cells and extracts the contact can be indirect. Some results given as binding are weak or reduced against the parent protein; the word gives no strength.

Amino acid sequences for entries named in this document (tags omitted). A change or cut given only in a name is not applied to a line headed by its entry. Chains listed by the source or under a name are the forms on record and can include a tag or linker. Residues count along the entry.
UniProt Q9Y6W5: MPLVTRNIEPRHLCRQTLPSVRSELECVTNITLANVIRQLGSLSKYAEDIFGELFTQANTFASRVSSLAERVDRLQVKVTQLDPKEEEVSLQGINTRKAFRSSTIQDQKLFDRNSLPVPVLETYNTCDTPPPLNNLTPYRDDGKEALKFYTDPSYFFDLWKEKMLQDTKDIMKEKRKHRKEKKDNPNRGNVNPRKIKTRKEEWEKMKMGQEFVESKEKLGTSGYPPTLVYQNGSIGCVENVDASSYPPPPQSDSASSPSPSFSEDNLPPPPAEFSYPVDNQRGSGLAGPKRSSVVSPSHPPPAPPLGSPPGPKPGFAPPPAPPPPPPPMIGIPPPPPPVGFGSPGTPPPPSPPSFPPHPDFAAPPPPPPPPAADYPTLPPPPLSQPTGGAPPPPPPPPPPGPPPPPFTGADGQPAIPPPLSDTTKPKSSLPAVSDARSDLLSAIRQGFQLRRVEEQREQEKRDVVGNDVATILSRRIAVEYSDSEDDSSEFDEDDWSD
GST-Scar2 SHD: residues 1-170 of Q9Y6W5
UniProt Q9UQB8: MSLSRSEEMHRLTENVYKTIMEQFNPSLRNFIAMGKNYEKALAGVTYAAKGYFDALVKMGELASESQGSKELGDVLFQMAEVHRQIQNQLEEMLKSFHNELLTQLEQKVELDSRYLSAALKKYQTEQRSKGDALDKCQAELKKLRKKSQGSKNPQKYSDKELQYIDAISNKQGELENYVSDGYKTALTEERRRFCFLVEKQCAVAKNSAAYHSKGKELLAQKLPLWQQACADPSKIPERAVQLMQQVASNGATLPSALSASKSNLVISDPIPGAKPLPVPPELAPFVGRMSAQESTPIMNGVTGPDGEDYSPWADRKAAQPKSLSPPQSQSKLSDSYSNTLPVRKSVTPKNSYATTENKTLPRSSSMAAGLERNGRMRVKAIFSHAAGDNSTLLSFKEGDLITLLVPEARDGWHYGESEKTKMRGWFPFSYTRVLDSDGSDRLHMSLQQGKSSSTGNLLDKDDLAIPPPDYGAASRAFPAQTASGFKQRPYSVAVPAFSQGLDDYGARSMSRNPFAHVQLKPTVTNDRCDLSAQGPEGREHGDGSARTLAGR
UniProt P60953: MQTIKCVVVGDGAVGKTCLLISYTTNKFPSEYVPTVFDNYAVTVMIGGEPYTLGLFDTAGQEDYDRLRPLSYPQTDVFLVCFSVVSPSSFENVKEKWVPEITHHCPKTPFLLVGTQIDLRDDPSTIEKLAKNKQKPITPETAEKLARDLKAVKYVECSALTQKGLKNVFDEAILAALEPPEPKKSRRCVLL
constitutively active GST-L61 Cdc42 (P60953, form named): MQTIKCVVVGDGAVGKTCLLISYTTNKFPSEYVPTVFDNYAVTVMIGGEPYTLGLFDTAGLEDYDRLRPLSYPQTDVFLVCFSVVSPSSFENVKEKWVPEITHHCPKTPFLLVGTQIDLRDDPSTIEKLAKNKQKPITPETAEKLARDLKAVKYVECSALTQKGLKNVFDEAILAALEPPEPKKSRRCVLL
UniProt Q8IZP0: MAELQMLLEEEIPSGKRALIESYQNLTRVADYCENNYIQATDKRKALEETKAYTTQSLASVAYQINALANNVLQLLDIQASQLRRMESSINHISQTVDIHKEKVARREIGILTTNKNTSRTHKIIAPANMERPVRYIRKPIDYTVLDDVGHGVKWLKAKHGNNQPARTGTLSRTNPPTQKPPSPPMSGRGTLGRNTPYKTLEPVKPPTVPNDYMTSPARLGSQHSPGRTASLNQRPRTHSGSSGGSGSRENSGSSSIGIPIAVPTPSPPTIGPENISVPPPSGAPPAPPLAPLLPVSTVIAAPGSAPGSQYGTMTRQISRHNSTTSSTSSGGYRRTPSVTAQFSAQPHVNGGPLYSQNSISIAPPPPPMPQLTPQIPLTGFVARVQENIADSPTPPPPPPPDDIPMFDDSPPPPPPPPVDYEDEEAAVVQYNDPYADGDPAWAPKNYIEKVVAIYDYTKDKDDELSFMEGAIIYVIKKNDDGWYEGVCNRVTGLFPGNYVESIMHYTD
UniProt Q8WUW1: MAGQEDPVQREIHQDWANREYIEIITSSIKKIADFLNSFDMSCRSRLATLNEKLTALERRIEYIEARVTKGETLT
UniProt Q8CBW3: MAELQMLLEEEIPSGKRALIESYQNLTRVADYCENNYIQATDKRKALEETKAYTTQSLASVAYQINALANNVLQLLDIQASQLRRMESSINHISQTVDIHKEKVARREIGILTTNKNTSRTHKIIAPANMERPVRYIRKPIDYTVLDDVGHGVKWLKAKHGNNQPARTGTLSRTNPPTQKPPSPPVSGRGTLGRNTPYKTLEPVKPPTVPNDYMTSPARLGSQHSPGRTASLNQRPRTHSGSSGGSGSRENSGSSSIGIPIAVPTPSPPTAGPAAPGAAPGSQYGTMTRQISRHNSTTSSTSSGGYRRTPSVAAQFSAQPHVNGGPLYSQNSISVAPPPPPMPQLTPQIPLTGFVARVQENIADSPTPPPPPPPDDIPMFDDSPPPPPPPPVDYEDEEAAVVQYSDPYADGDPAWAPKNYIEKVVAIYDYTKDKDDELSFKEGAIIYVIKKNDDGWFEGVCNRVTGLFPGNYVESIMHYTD

Key:
[1] = biological target: T1, Scar/WAVE3 (endogenous, mouse brain extract) (mouse (endogenous in mouse brain)) (UniProt Q8VHI6); assay: co-IP; mouse brain extract (1% Triton X-100 lysis buffer, 500 ug total protein); anti-Abi1 or anti-Scar/WAVE3 antibody and protein G beads; immunoblot; controls without antibody or with an unrelated antibody
T1 sequence: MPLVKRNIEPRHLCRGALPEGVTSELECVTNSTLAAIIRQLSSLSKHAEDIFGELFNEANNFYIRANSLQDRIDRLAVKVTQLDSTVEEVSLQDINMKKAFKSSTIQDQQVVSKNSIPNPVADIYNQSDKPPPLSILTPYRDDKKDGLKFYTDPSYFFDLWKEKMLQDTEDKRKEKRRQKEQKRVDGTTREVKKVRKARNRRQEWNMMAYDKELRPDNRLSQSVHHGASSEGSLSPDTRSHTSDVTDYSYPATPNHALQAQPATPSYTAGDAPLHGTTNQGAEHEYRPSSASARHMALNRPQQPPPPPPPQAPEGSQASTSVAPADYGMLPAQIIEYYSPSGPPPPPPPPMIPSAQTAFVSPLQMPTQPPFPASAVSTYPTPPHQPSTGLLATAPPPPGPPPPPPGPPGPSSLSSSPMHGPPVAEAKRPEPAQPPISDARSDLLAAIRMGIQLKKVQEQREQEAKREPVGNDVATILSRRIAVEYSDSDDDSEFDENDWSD

[2] = biological target: Myc-Scar2 SHD (human) (UniProt Q9Y6W5); assay: co-IP; lysates of Cos7 cells co-transfected with Myc-Scar SHD and HA-Abi1 or HA-HSPC300; 9E10 anti-Myc and protein G beads; immunoblot; controls without antibody or with empty pRK5-Myc vector
[3] = biological target: GST-Scar2 SHD (human) (UniProt Q9Y6W5); assay: pull-down; GST-Scar SHD or GST alone on glutathione-s-agarose beads, incubated 1 hour with 500 ug lysate of Cos7 cells transfected with HA-Abi1 or HA-HSPC300; 1% Triton lysis buffer; immunoblot; only the target purified
[4] = biological target: GST-IRSp53 (UniProt Q9UQB8); assay: pull-down; equivalent amounts of GST-IRSp53 or GST-L61 Cdc42 on glutathione-s-agarose beads, incubated with lysates of Cos cells transfected with Myc-Scar1, 2 or 3; immunoblot with 9E10 anti-Myc; only the target purified
[5] = biological target: constitutively active GST-L61 Cdc42 (UniProt P60953); assay: as above
[6] = biological target: pYTH9-Abi1 (GAL4 DNA-binding domain fusion of Abi1) (UniProt Q8IZP0); assay: two-hybrid; yeast two-hybrid; Abi1 or HSPC300 on the GAL4 DNA-binding domain (pYTH9), Scar1 constructs on the GAL4 activation domain (pACT-II); beta-Gal reporter gene assay
[7] = biological target: pYTH9-HSPC300 (GAL4 DNA-binding domain fusion of HSPC300) (UniProt Q8WUW1); assay: as above
[8] = biological target: Abi1 (endogenous, mouse brain extract) (mouse (endogenous in mouse brain)) (UniProt Q8CBW3); assay: co-IP; mouse brain extract (1% Triton X-100 lysis buffer, 500 ug total protein); anti-Abi1 or anti-Scar/WAVE3 antibody and protein G beads; immunoblot; controls without antibody or with an unrelated antibody

Q: How did the binding [1] turn out when “Abi1 (endogenous, mouse brain extract) (from UniProt Q8CBW3 1-481)” was run?
A: The binding was “binds”.

Q: How did the binding [2] turn out when HA-Abi1 (from UniProt Q8IZP0 1-508) was run?
A: The binding was “binds”.

Q: And the binding [3]?
A: The binding was “binds”.

Q: Myc-Scar1 (from UniProt Q92558 1-559) was tested. Which binding [4] did it give?
A: The binding was “binds”.

Q: And the binding [5]?
A: Its binding is “no binding”.

Q: How did the binding [4] turn out when Myc-Scar2 (from UniProt Q9Y6W5 1-498) was run?
A: The binding was “binds”.

Q: And the binding [5]?
A: The binding was “no binding”.

Q: “pAct-Scar1 Full Length (FL) (from UniProt Q92558 1-559)” was tested. Which binding [6] did it give?
A: Its binding is “binds”.

Q: And the binding [7]?
A: Its binding is “binds”.

B1: Scar/WAVE1 (endogenous, mouse brain extract) (protein, UniProt Q8R5H6 1-559)
chain: MPLVKRNIDPRHLCHTALPRGIKNELECVTNISLANIIRQLSSLSKYAEDIFGELFNEAHSFSFRVNSLQERVDRLSVSVTQLDPKEEELSLQDITMRKAFRSSTIQDQQLFDRKTLPIPLQETYDVCEQPPPLNILTPYRDDGKEGLKFYTNPSYFFDLWKEKMLQDTEDKRKEKRKQKQKNLDRPHEPEKVPRAPHDRRREWQKLAQGPELAEDDADLLHKHIEVANGPASHYETRPQTYVDHMDGSYSLSALPFSQMSELLTRAEERVLVRPHEPPPPPPMHGAGDAKPTPTCISSATGLIENRPQSPAAGRTPVFVSPTPPPPPPPLPSALSTSSLRASMTSTPPPPVPPPPPPPATALQAPAVPPPPAPLQIAPGVLHPAPPPIAPPLVQPSPPVARAAPVCETVPVHPLPQGEVQGLPPPPPPPPLPPPGIRPSSPVAVAALAHPPSGLHPAPSTAPGPHAPLMPPSPPSQVLPASEPKRHPSTLPVISDARSVLLEAIRKGIQLRKVEEQREQEAKHERIENDVATILSRRIAVEYSDSEDDSEFDEVDWLE
Q: With B1 as the molecule, how does the binding [8] read?
A: Its binding is “binds”.

B2: Scar/WAVE3 (endogenous, mouse brain extract) (protein, UniProt Q8VHI6 1-501)
chain: T1 sequence
Q: B2 was tested. Which binding [8] did it give?
A: Its binding is “binds”.
